Literature values in publication PMC13286052 (Antimicrobial Agents and Chemotherapy, 2026).

Experiments:
[1] = cited from earlier work
[2] = cited from earlier work; remark: listed apart in the source

**Q.** For `O=C(NCCc1ccc(F)cc1F)c1cn(Cc2ccc(F)cc2)cc(O)c1=O` [ZW-2038], which “aqueous solubility (in words)” value [1] is on record?
**A.** The value was “poor”.

**Q.** What about the plasma stability [2] of the same compound?
**A.** Its plasma stability is “excellent”.
